From PubChem BioAssay AID2147 (National Center for Advancing Translational Sciences (NCATS), 2009)
Among all 230,000 compounds or so, about 3,600 (1.6%) were called active. This list was built around the results that the source calls inconclusive (neither active nor inactive); the mix of calls is not that of the screen. Calls come from the whole dose curve; as a rule, active = well fitted inhibition curve with a large enough effect (not every such curve was filed as active); inconclusive = small, poorly fitted or top-dose-only effect, or another doubt; inactive = no such curve, though single readings can be large or run the other way. Potencies beside an inconclusive call are fits to weak or partial responses and may not hold up.

biological target: Lysine-specific demethylase 4E (Homo sapiens) (UniProt B2RXH2); experiment: qHTS Assay for Inhibitors of Human Jumonji Domain Containing 2E (JMJD2E); conditions: JMJD2E catalytic domain, FDH-coupled NADH fluorescence (FDH is formaldehyde dehydrogenase); series mostly up to 57.1 µM; activity change, negative = inhibition: at the top concentration
Sequence of UniProt B2RXH2 (B2RXH2 whole entry, looked up, the tested form may be a part): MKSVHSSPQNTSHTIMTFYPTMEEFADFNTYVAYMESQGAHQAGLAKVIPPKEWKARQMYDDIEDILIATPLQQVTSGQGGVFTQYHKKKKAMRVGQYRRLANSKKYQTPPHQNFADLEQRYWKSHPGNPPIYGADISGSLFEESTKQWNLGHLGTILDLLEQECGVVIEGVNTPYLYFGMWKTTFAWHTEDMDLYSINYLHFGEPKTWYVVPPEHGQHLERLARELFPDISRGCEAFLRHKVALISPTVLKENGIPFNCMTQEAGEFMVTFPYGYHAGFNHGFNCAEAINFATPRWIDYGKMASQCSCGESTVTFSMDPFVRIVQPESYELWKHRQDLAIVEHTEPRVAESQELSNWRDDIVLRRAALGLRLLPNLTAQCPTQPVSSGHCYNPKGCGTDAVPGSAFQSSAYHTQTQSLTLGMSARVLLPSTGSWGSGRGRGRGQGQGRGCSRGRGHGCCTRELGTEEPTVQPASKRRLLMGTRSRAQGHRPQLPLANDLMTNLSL
Note: nearly all actives have a fitted effect of over 50% in size.
Potency is the fitted concentration of half-maximal effect; tags give direction and shape of the fitted curve.
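Throughout, for activity change, negative = inhibition: 0% = wells with enzyme and -100% = buffer wells without enzyme.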

| SMILES | Potency | activity change, negative = inhibition |
| --- | --- | --- |
| O=C(CC1S/C(=N/N=C/c2c[nH]c3ccccc23)NC1=O)Nc1ccccc1 (stereo not given) | inconclusive: 39.8 µM [inhibitor, single point] | – |
| Nc1c(C(=O)C2CC2)sc2nc3c(cc12)CCC3 | inconclusive: 25.1 µM [inhibitor, partial curve] | – |
| COC(=O)CCC(=O)OC1(C)C(=O)C=C2C=C(C3CC3)N(c3ccc(OC)cc3)C=C2C1=O (stereo not given) | inconclusive: 3.55 µM [inhibitor, partial curve] | – |
| Cc1nc2oc3c(NCc4ccccc4)ncnc3c2c2c1COC(C)(C)C2 | inconclusive: 28.2 µM [inhibitor, partial curve] | – |
| N#Cc1c(NC(=O)CCC(=O)O)sc2c1CCCCC2 | inconclusive: 22.4 µM [inhibitor, single point] | – |
| CCOc1ccc(S(=O)(=O)Nc2cc(Sc3ncn[nH]3)c3oc(=O)sc3c2)cc1 | inconclusive: 39.8 µM [inhibitor, single point] | – |
| COc1ccc2cc(C#N)c(SCC(=O)NNC(=O)Cc3ccccc3)nc2c1 | inconclusive: 12.6 µM [inhibitor, partial curve] | – |
| Cc1nn(-c2ccccc2)c2sc(C(=O)NNC(=O)COc3ccccc3)cc12 | inconclusive: 28.2 µM [inhibitor, single point] | – |
| CCn1cnc2sc(C(=O)Oc3ccc(Br)cc3)c(C)c2c1=O | – | inactive: -7.63% |
| CC(C)(C)C1CCc2sc(C(=O)NNC(=O)CCl)cc2C1 (stereo not given) | – | inactive: -5.3% |
| COc1ccc(NC(=O)CCN2C(=O)C3C4CCC(C4)C3C2=O)cc1 (stereo not given) | – | inactive: -6.01% |
| CCN(CCNCC(O)COCc1ccc(Cl)cc1)c1cccc(C)c1 (stereo not given) | inconclusive: 25.1 µM [inhibitor, single point] | – |
| COc1ccc(C2/C(=C(\O)c3cc(C)ccc3C)C(=O)C(=O)N2CCN(C)C)cc1OC (stereo not given) | – | inactive: -4.73% |
| Cc1cc(=O)oc2cc(OCC3CC(c4ccccc4)=NO3)ccc12 (stereo not given) | inconclusive: 28.2 µM [inhibitor, partial curve] | – |
| CC(NC(=S)NCCN1CCOCC1)C12CC3CC(CC(C3)C1)C2 (stereo not given) | – | inactive: 1.68% |
| CCCOc1ccc(C(=O)N2CCN(c3ccc(NC(=O)CC)cc3Cl)CC2)cc1 | – | inactive: 4.01% |
| CC(c1cccs1)N(Cc1ccco1)C(=S)Nc1ccccc1Cl (stereo not given) | – | inactive: -9.38% |
| COc1cccc(-c2nc(CS(=O)(=O)CC(=O)Nc3cc(C)ccc3C)c(C)o2)c1 | inconclusive: 39.8 µM [inhibitor, single point] | – |
| COC(=O)c1cc(OC)c(OC)cc1NC(=O)CCc1ccc(C)o1 | inconclusive: 35.5 µM [inhibitor, single point] | – |
| CC(CC(=O)O)CC(=O)Nc1ccccc1C(=O)O (stereo not given) | inconclusive: 39.8 µM [inhibitor, single point] | – |
| COCCn1c(SCc2ccc(C(=O)OC)o2)nc2ccccc2c1=O | inconclusive: 35.5 µM [inhibitor, single point] | – |
| Cc1c(C(=O)Nc2cccc(Cl)c2)c2ccccn2c1CCc1ccncc1 | inconclusive: 3.55 µM [inhibitor, full curve] | – |
| COc1ccc(CNC(=O)c2ccc(-c3ccccc3)cc2)cc1 | – | inactive: 5.61% |

| SMILES | Potency | activity change, negative = inhibition |
| --- | --- | --- |
| COc1ccccc1Cn1nnc2c(=O)[nH]c(C3CCN(C(=O)c4ccccc4Cl)CC3)nc21 | – | inactive: -1.13% |
| CC(=O)OC1CC[C@@]2(C)C(CC[C@@]3(C)C2CC=C2C4CC(C)(C)CC[C@]4(C)CC[C@@]23C)C1(C)C (stereo not given in full) | – | inactive: -47.1% |
| Fc1cccc(-c2cc3nc4c(c(N5CCOCC5)n3n2)CCCC4)c1 | inconclusive: 35.5 µM [inhibitor, single point] | – |
| COC(=O)[C@H](COC(C)(C)C)NC(=O)O[C@@H]1C(=O)c2cc(OC)ccc2O[C@H]1c1cccc(OC)c1 | inconclusive: 31.6 µM [inhibitor, single point] | – |
| CNC(=O)NC(=O)COC(=O)c1ccc(-n2c(C)ccc2C)cc1 | active: 12.6 µM | – |
| COc1cc2c(cc1OC)C1(CCCCC1)CN(C)C2 | inconclusive: 22.4 µM [inhibitor, single point] | – |
| Cc1ccc(C)c(OCC(O)CN2CCCCC2C)c1 (stereo not given) | – | inactive: 4.89% |
| CC(C)CN(CC(C)C)c1nnc(NC(=O)Cn2c(=O)oc3ccccc32)s1 | – | inactive: -2.88% |
| Cc1[nH]c2ccccc2c1CN1CCC(Cc2ccccc2)CC1 | active: 25.1 µM | – |
| CCOC(=O)NC[C@H](Cc1ccc(OCCc2nc(-c3ccccc3)oc2C)cc1)N/C(C)=C\C(=O)c1ccc(C(F)(F)F)cc1 | inconclusive: 11.2 µM [inhibitor, partial curve] | – |
| Cn1c[n+](C)cc1-c1ccc(/C(N)=N/O)cc1 | inconclusive: 39.8 µM [inhibitor, single point] | – |
| Oc1c(C(c2ccc(F)cc2)N2CCc3ccccc3C2)sc2ncnn12 (stereo not given) | inconclusive: 39.8 µM [inhibitor, single point] | – |
| COc1cc(-c2cc3nc4ccccc4n3c(N)c2C#N)cc(OC)c1OC | inconclusive: 7.94 µM [inhibitor, partial curve] | – |
| COc1ccc(N2CC(C)Cn3c2nc2c3c(=O)n(CCc3ccccc3)c(=O)n2C)cc1 (stereo not given) | – | inactive: 2.66% |
| O=C(Nc1cnccn1)Nc1ccccc1Cl | inconclusive: 25.1 µM [inhibitor, single point] | – |
| COc1ccc(Cc2[nH]n3c(=O)cc(C(C)C)nc3c2-c2ccccc2)cc1 | inconclusive: 25.1 µM [inhibitor, partial curve, poor fit] | – |
| O=C(O)c1ccc(N2C(=O)c3cccc(Oc4ccc(Cl)cc4)c3C2=O)cc1 | inconclusive: 39.8 µM [inhibitor, single point] | – |
| Cc1ccc(C(=O)Nc2ccc(C(=O)N/N=C/c3ccncc3)cc2)cc1 | inconclusive: 39.8 µM [inhibitor, single point] | – |
| c1csc(Cn2c(-c3cccs3)nc3ccccc32)c1 | inconclusive: 28.2 µM [inhibitor, partial curve] | – |
| CCc1nc(SCC(=O)O)c(C#N)cc1C | – | inactive: -14.8% |
| COc1cc(/C=C/C(=O)OCC(=O)c2c[nH]c3ccccc23)ccc1OC(F)F | inconclusive: 35.5 µM [inhibitor, single point] | – |
| COC(=O)c1ccc(=O)c2nc3/c(=C/O)c(O)cc(=O)c3[nH]c12 | active: 8.91 µM | – |
